Test results reported in the supplement of paper PMC4723716.
Over roughly 3,600 compounds, “viability index relative to DMSO control” has its median near 0.81; the lowest 2% begin near 0.13. This is one part of the list.
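Also: 384-well serum-free SaLSSA: MitoTracker Red CMXRos staining with saponin lysis, high-content imaging, treated-well particle count divided by plate-mean count of DMSO wells.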

What follows are compounds tested on Plasmodium falciparum NF54 stage V gametocytes (assay: viability index relative to DMSO control (fraction); higher = less gametocyte killing). Settings: 1.25 µM, incubation time: 72 h.
CSC1=C(C#N)C(c2ccc(O)cc2)CC(=O)N1 (stereo not drawn) gave a viability index of 1.02.
For COc1ccc(OC)c(NC(=O)COc2cc3ccccc3cc2C(=O)Nc2cc(OC)c(Cl)cc2OC)c1, the viability index was 0.295.
CCN(CC)CCCN(Cc1cc2ccc(C)cc2[nH]c1=O)C(=S)Nc1cccc(Cl)c1 was tested, and the viability index was 0.703.
CSc1ccc(Cl)c(Cl)c1 showed a viability index of 0.703.
For CC(=O)N(C1=C(N2CCOCC2)C(=O)c2ccccc2C1=O)c1ccc(Cl)c(Cl)c1, the viability index was 0.351.
N#Cc1c2c(c(N3CCN(Cc4ccc(F)cc4)CC3)n3c1nc1ccccc13)CCC2 gave a viability index of 0.745.
CCOC(=O)c1cccc(NC(=O)CC2C(=O)N(c3ccc(F)cc3)C(=O)N2CCC(C)C)c1 (stereo not drawn) showed a viability index of 0.51.
O=C(c1ccccc1F)N1CCN(Cc2ccccc2C(F)(F)F)CC1 showed a viability index of 0.94.
In the case of O=C1N(c2ccccc2)C[C@@H]2C[C@@H](c3ccc(C#CCCO)cc3)N3CCC[C@@]123, the viability index is reported as 0.808.
In the case of CCCCCn1c(SCc2ccc(C)cc2)nc2cc(C(=O)NCc3ccco3)ccc2c1=O, the viability index is reported as 1.22.
In the case of Cc1ccc(-c2c3c4n(c(-c5ccc(Cl)cc5)cn4c2C(=O)Nc2ccccc2Cl)CCCC3)cc1, the viability index is reported as 0.758.
COc1cccc(-c2cn3c(n2)sc2cc(C(=O)NC4CCN(Cc5ccccc5)CC4)ccc23)c1 was tested, and the viability index was 0.964.
Work on c1ccc(C2=Nc3ccccc3N=C(c3ccccc3)c3ccccc32)cc1 yielded a viability index of 0.315.
With N=c1c2c(n(Cc3ccc([N+](=O)[O-])cc3)c3c1CCC3)CCCC2 the viability index was 0.569.
With CC12CCC(CN(CC(O)Cn3c4ccc(Br)cc4c4cc(Br)ccc43)C1)C2(C)C (stereo not drawn) the viability index was 0.829.
Compound CC(CCc1ccccc1)NCC(O)c1cccc([N+](=O)[O-])c1 (stereo not drawn) has a viability index of 0.498.
Compound O=C1C=C(Nc2ccc(O)cc2)c2ccccc2C1=O has a viability index of 0.942.
CCOC(=O)COC1=C(CCCCC2CCCCC2)C(=O)c2ccccc2C1=O gave a viability index of 0.779.
In the case of NC(=O)c1ccc(-n2nnnc2SCc2ccc(Cl)cc2)cc1, the viability index is reported as 0.865.
For N#CC(=CC=Cc1ccc([N+](=O)[O-])o1)c1nc2ccccc2[nH]1, the viability index was 0.0143.
In the case of Cc1ccc(C[n+]2cc(-c3ccc(C)cc3)n3c2CCC3)cc1, the viability index is reported as 0.776.
For Cc1cccc(CN2CCC(CNC(=S)Nc3ccc4nc(N5CCN(C)CC5)cc(C)c4c3)CC2)c1, the viability index was 0.956.
For CCc1nc2nc(C)cc(Nc3ccc(I)cc3)n2n1, the viability index was 0.98.
In the case of CCCN(Cc1cc(OC)c2c(c1)OCO2)CC1CC1, the viability index is reported as 0.914.
Cn1c(=O)c2c(nc(N3CCN(C(=O)Nc4ccc(F)cc4F)CC3)n2C)n(C)c1=O was tested, and the viability index was 0.996.
In the case of CC(=O)N(C)C1=C(N2CCOCC2)C(=O)c2ccccc2C1=O, the viability index is reported as 0.18.
COc1ccc2nc(C)cc(Nc3ccc(Oc4ccc(Cl)c5ccccc45)c(Cl)c3)c2c1 gave a viability index of 0.591.
For N#Cc1c(N)nc(SCC(=O)c2ccc(Cl)cc2)c(C#N)c1-c1ccco1, the viability index was 0.864.
CC(=NOC(=O)c1ccco1)c1cnccn1 gave a viability index of 0.914.
Cc1cc(Nc2ccc(C(=O)n3ccnc3)cc2)n2ncnc2n1 was tested, and the viability index was 0.916.
For CN(C)CCCNc1ncnc2c1[nH]c1ccc(Cl)cc12, the viability index was 0.874.
CN(C)CCCNc1c2ccccc2nc2ccccc12 gave a viability index of 0.0224.
O=C(Nc1ccc(-c2nc3cc(NC(=O)c4cccs4)ccc3[nH]2)cc1)c1cccs1 was tested, and the viability index was 1.05.
Cc1ccnc(Nc2nc(-c3ccc(Cl)cc3)cs2)c1 showed a viability index of 0.938.
Cc1ccc(Nc2nc(N)c3ccccc3n2)cc1Cl showed a viability index of 0.638.
For Cc1ccc(-c2nc3ncccc3o2)cc1NC(=O)COc1ccc(C(C)(C)C)cc1, the viability index was 0.928.
COc1cc2nc(SCC(C)C)n(CCCn3ccnc3)c(=N)c2cc1OC showed a viability index of 1.01.
In the case of COc1ccc(CCNC(=S)Nc2ccccc2C)cc1OC, the viability index is reported as 0.795.
CCOC(=O)C1=C(C)NC2=C(C(=O)C(C(=O)OCC)C(c3ccccc3OC)C2)C1c1cccs1 (stereo not drawn) was tested, and the viability index was 0.656.
For Cc1c(C)c(C)c(CNC(=S)NN)c(C)c1C, the viability index was 0.78.
With O[C@H]1[C@H]2c3cc4c(cc3CN3CCC(=C[C@@H]1O)[C@H]23)OCO4 the viability index was 0.722.
O=C(c1cccc([N+](=O)[O-])c1)c1ccc(Cl)c(Cl)c1 gave a viability index of 0.643.
O=C(C[n+]1ccccc1)NN=Cc1ccc(Cl)c(Cl)c1 gave a viability index of 0.857.
O=C(NCCCCCCNC(=O)Nc1nc(-c2ccc(F)cc2)cs1)Nc1nc(-c2ccc(F)cc2)cs1 was tested, and the viability index was 0.663.
For CCOC(=O)C1=C(C)N=c2sc(=Cc3ccc(I)o3)c(=O)n2C1c1ccccc1Cl (stereo not drawn), the viability index was 0.9.
Cc1cc(C)n(-c2ccc(NC(=O)C3CCN(Cc4cnc(C)s4)CC3)cc2)n1 was tested, and the viability index was 0.933.
COc1ccc(NC(=O)c2cccc([N+](=O)[O-])c2C)cc1 gave a viability index of 0.939.
With O=C(CN1CCC(NC(=O)c2cccc(F)c2)CC1)NC1CC1 the viability index was 0.837.
Compound O=[N+]([O-])c1cc(C(F)(F)F)ccc1N1CCCN(C(=S)Nc2ccccc2)CC1 has a viability index of 0.166.
Work on COc1cccc(Nc2nc(NCC3CCCO3)c3ccccc3n2)c1 (stereo not drawn) yielded a viability index of 0.736.
Work on N#Cc1ccccc1N1CCCCC1 yielded a viability index of 0.759.
Cc1ccc(NC(=O)c2cc(C(=O)c3cc(Cl)ccc3O)cn(-c3ccc(C)cc3C)c2=O)c(C)c1 was tested, and the viability index was 0.767.
Work on CCOC(=O)c1c(NC(=O)c2ccccc2)sc2c(O)c(CN(CC)CC)ccc12 yielded a viability index of 0.223.
CC[n+]1c(C=C2Sc3ccc(C)cc3N2CCO)ccc2ccccc21 was tested, and the viability index was 0.861.
Cc1ccc(Cn2c(=N)n(CC(O)c3ccc(Cl)c(Cl)c3)c3ccccc32)cc1 (stereo not drawn) was tested, and the viability index was 0.168.
In the case of C(=NNc1nc2ccccc2[nH]1)c1cccc(Oc2ccccc2)c1, the viability index is reported as 0.711.
Compound CN1CCc2c(sc3nc(SCC(=O)NCCc4ccccc4)n(-c4ccc(Cl)cc4)c(=O)c23)C1 has a viability index of 0.771.
CC[n+]1c(SC)ccc2cc(OC)ccc21 was tested, and the viability index was 0.681.
In the case of COc1ccc(C2CC(=O)C3=C(C2)NC(C)=C(C(=O)OC2CCCC2)C3c2ccc(SC)cc2)cc1OC (stereo not drawn), the viability index is reported as 0.842.
For CC(=O)N1c2ccccc2C(C)(c2ccc(Br)cc2)CC1(C)C (stereo not drawn), the viability index was 0.938.
With Clc1ccc(-c2c[n+](Cc3ccc(Cl)c(Cl)c3)c3n2CCC3)cc1 the viability index was 0.709.
Work on CCN1C(=Cc2[se]c3ccccc3[n+]2CC)C=Cc2cc(OC)ccc21 yielded a viability index of 1.01.
Compound CCC(=O)N1CCc2cc(Br)cc(S(=O)(=O)N3CCN(CC)CC3)c21 has a viability index of 1.06.
In the case of NNC(=O)C1CCCN1S(=O)(=O)c1ccc(Cl)cc1 (stereo not drawn), the viability index is reported as 1.2.
With CCCCN1C(=Cc2cccc[n+]2C)Sc2cc(NC(C)=O)ccc21 the viability index was 0.691.
CCCCc1ccc(Nc2ncnc3sc4c(c23)CCCC4)cc1 was tested, and the viability index was 1.06.
In the case of COc1ccc(C=NNc2cc(C)nc3ccccc23)cc1, the viability index is reported as 0.946.
For CCCN1CCc2c(sc3nc(SC)n(-c4ccccc4)c(=O)c23)C1, the viability index was 0.888.
In the case of CCCCN(CCCC)S(=O)(=O)c1ccc(NC(=O)c2ccco2)cc1, the viability index is reported as 0.669.
CC[n+]1c(C=CN(C)C)sc2ccccc21 gave a viability index of 0.859.
For COC(=O)C1=CNC=C(C(=O)OC)C1c1ccc(Cl)c(Cl)c1, the viability index was 0.849.
In the case of COc1ccc(C2CC(=O)C3=C(C2)NC(C)=C(C(=O)OC2CCCC2)C3c2ccc([N+](=O)[O-])cc2)cc1OC (stereo not drawn), the viability index is reported as 0.344.
In the case of O=C(CCl)Nc1ccc(S(=O)(=O)OCC(F)(F)C(F)F)cc1, the viability index is reported as 0.628.
CCOc1ccc(C(=O)C[N+]2=C(C)c3ccc(C)n3CC2)cc1 was tested, and the viability index was 0.742.
With Oc1ccccc1C=NNc1nnc2c3ccccc3n(Cc3ccccc3)c2n1 the viability index was 0.355.
With CCOC(=O)c1[nH]c2ccccc2c1N=NN(C)C the viability index was 0.663.
C[C@H](Nc1cncc(-c2ccc(Cl)cc2)n1)c1ccccc1 showed a viability index of 0.804.
Work on Cc1ncc(CN2CCC(C(=O)Nc3ccc(-c4nc5ccccc5o4)cc3)CC2)s1 yielded a viability index of 0.779.
In the case of O=C(CSc1cn(CCNC(=O)c2ccc(F)cc2)c2ccccc12)Nc1ccccc1F, the viability index is reported as 1.15.
For O=[N+]([O-])c1ccc(S(=O)(=O)N2CCN(C(=S)NCc3ccccc3)CC2)cc1, the viability index was 0.163.
With Oc1ccccc1-c1nc2ncccn2c1Nc1cccc(C(F)(F)F)c1 the viability index was 0.924.
With Brc1ccc(Nc2nc(NCc3ccco3)c3ccccc3n2)cc1 the viability index was 0.601.
In the case of CCOCCCNc1nc2cc(OC)c(OC)cc2c2nc(-c3ccccc3)nn12, the viability index is reported as 0.675.
In the case of Cc1cccc(N2C(N)=NC(N)=NC2(C)C)c1, the viability index is reported as 1.07.
CCOc1ccc(C(=O)C(C)[n+]2cc(-c3ccc(OC)cc3)n3c2CCC3)cc1 (stereo not drawn) showed a viability index of 1.
CCOc1ccc(C2C(=O)N(C3CCCCC3)CC(=O)N2Cc2ccc(F)cc2)cc1OC (stereo not drawn) gave a viability index of 0.66.
With FC(F)(F)c1cccc(NC(=S)N2CCCC2c2ccccc2Cl)c1 (stereo not drawn) the viability index was 0.536.
In the case of CCOC(=O)c1cnc2c(C)cc(Cl)cc2c1Nc1ccc(OC)c(OC)c1, the viability index is reported as 0.697.
Compound CCCCOc1cccc(C(=O)N(Cc2cccs2)c2ccc(OC)cc2)c1 has a viability index of 0.53.
CN(CCCNc1ccnc2cc(Cl)ccc12)C(=O)c1ccc(C(F)(F)F)cc1 showed a viability index of 0.72.
CCC(=O)NNc1cc(N2CCCC2)nc(N2CCCC2)n1 showed a viability index of 0.928.
Compound Nc1c(C(=O)Nc2ccc(F)cc2)sc2nc3c(c(-c4cccs4)c12)CCCC3 has a viability index of 0.768.
For O=C(CC1N=C2c3ccccc3N=C(SCc3cccc(F)c3)N2C1=O)NCc1cccs1 (stereo not drawn), the viability index was 0.667.
